Some of the results follow. The list includes weakly bound sequences.
target: T1, MBP-FoxP3dN (UniProt Q99JB6); assay: PD-seq (MBP pull-down with sequencing); details: 20 mM Tris-HCl pH 7.5, 100 mM NaCl, 1.5 mM MgCl2, 0.4 uM protein, 0.1 uM dsDNA library, 30 min, room temperature, amylose pull-down; high values mean tight binding; double strand, one strand shown
T1 sequence: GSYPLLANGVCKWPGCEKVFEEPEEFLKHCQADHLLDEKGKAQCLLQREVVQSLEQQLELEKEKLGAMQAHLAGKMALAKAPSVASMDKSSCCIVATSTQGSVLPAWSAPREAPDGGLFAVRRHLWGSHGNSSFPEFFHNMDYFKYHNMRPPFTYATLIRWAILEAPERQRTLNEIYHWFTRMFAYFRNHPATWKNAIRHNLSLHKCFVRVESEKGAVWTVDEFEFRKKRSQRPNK

Row | Sequence | binding signal (RPM ratio (pull-down/input))
1 | GATGATTGTTCTCCCAGCTGATGAATTTTGCTTATCGAGTAAACAAATTTTCCTAATCTTTCTGTTCAAGCGCCATCTAC | 6.46
2 | GATGATTGTTCTCCCAGCTGATGAATTTTAATGATCGAGTAAACAAATTTTCCTAATCTTTCTGTTCAAGCGCCATCTAC | 0.873
3 | GATGATTGTTCTCCCAGCTGATGAATTATACTCTTCGAGTAAACAAATTTTCCTAATCTTTCTGTTCAAGCGCCATCTAC | 0.438
4 | GATGATTGTTCTCCCAGCTGATGAATTTGTGTACTCGAGTAAACAAATTTTCCTAATCTTTCTGTTCAAGCGCCATCTAC | 6.72
5 | GATGATTGTTCTCCCAGCTGATGAATTGGCCTTCTCGAGTAAACAAATTTTCCTAATCTTTCTGTTCAAGCGCCATCTAC | 0.865
6 | GATGATTGTTCTCCCAGCTGATGAATTGTCCATGTCGAGTAAACAAATTTTCCTAATCTTTCTGTTCAAGCGCCATCTAC | 0.38
7 | GATGATTGTTCTCCCAGCTGATGAATTCCGTCCGTCGAGTAAACAAATTTTCCTAATCTTTCTGTTCAAGCGCCATCTAC | 0.369
8 | GATGATTGTTCTCCCAGCTGATGAATTGCCGTTATCGAGTAAACAAATTTTCCTAATCTTTCTGTTCAAGCGCCATCTAC | 1.14
9 | GATGATTGTTCTCCCAGCTGATGAATTGGGGGGTTCGAGTAAACAAATTTTCCTAATCTTTCTGTTCAAGCGCCATCTAC | 0.652
10 | GATGATTGTTCTCCCAGCTGATGAATTTATTCAATCGAGTAAACAAATTTTCCTAATCTTTCTGTTCAAGCGCCATCTAC | 0.42
11 | GATGATTGTTCTCCCAGCTGATGAATTTACCCTTTCGAGTAAACAAATTTTCCTAATCTTTCTGTTCAAGCGCCATCTAC | 0.404
12 | GATGATTGTTCTCCCAGCTGATGAATTGCCATGTTCGAGTAAACAAATTTTCCTAATCTTTCTGTTCAAGCGCCATCTAC | 1.07
13 | GATGATTGTTCTCCCAGCTGATGAATTTAGAACGTCGAGTAAACAAATTTTCCTAATCTTTCTGTTCAAGCGCCATCTAC | 0.345
14 | GATGATTGTTCTCCCAGCTGATGAATTTTGTTTTTCGAGTAAACAAATTTTCCTAATCTTTCTGTTCAAGCGCCATCTAC | 7.43
15 | GATGATTGTTCTCCCAGCTGATGAATTGGAGTAATCGAGTAAACAAATTTTCCTAATCTTTCTGTTCAAGCGCCATCTAC | 0.455
16 | GATGATTGTTCTCCCAGCTGATGAATTTTACCTTTCGAGTAAACAAATTTTCCTAATCTTTCTGTTCAAGCGCCATCTAC | 0.319

Row | Sequence | binding signal (RPM ratio (pull-down/input))
17 | GATGATTGTTCTCCCAGCTGATGAATTGGACGGTTCGAGTAAACAAATTTTCCTAATCTTTCTGTTCAAGCGCCATCTAC | 0.3
18 | GATGATTGTTCTCCCAGCTGATGAATTTCCCATTTCGAGTAAACAAATTTTCCTAATCTTTCTGTTCAAGCGCCATCTAC | 0.27
19 | GATGATTGTTCTCCCAGCTGATGAATTCCTTTAATCGAGTAAACAAATTTTCCTAATCTTTCTGTTCAAGCGCCATCTAC | 0.231
20 | GATGATTGTTCTCCCAGCTGATGAATTCCACTGTTCGAGTAAACAAATTTTCCTAATCTTTCTGTTCAAGCGCCATCTAC | 0.479
21 | GATGATTGTTCTCCCAGCTGATGAATTTTTCCGCTCGAGTAAACAAATTTTCCTAATCTTTCTGTTCAAGCGCCATCTAC | 0.178
22 | GATGATTGTTCTCCCAGCTGATGAATTGGGAAGCTCGAGTAAACAAATTTTCCTAATCTTTCTGTTCAAGCGCCATCTAC | 0.225
23 | GATGATTGTTCTCCCAGCTGATGAATTTATAGTCTCGAGTAAACAAATTTTCCTAATCTTTCTGTTCAAGCGCCATCTAC | 1.87
24 | GATGATTGTTCTCCCAGCTGATGAATTGGTGGTCTCGAGTAAACAAATTTTCCTAATCTTTCTGTTCAAGCGCCATCTAC | 1.23
25 | GATGATTGTTCTCCCAGCTGATGAATTTTGTTAATCGAGTAAACAAATTTTCCTAATCTTTCTGTTCAAGCGCCATCTAC | 2.7
26 | GATGATTGTTCTCCCAGCTGATGAATTAAGTCGGTCGAGTAAACAAATTTTCCTAATCTTTCTGTTCAAGCGCCATCTAC | 0.303
27 | GATGATTGTTCTCCCAGCTGATGAATTTATCTCCTCGAGTAAACAAATTTTCCTAATCTTTCTGTTCAAGCGCCATCTAC | 0.631
28 | GATGATTGTTCTCCCAGCTGATGAATTATCAAATTCGAGTAAACAAATTTTCCTAATCTTTCTGTTCAAGCGCCATCTAC | 0.343
29 | GATGATTGTTCTCCCAGCTGATGAATTGCTTAGGTCGAGTAAACAAATTTTCCTAATCTTTCTGTTCAAGCGCCATCTAC | 0.744
30 | GATGATTGTTCTCCCAGCTGATGAATTACGCAAATCGAGTAAACAAATTTTCCTAATCTTTCTGTTCAAGCGCCATCTAC | 0.792
31 | GATGATTGTTCTCCCAGCTGATGAATTTTATTTTTCGAGTAAACAAATTTTCCTAATCTTTCTGTTCAAGCGCCATCTAC | 4.17
